# In the supplement of paper PMC11741623:
# The list shows a part of the results. Interaction screen of human proteins with wild-type SARS-CoV-2 proteins by split-DHFR complementation in yeast, 1 µg/mL methotrexate. Value = fitness of the pair (three or more lineages) minus that of the viral protein without a human partner, on a scale set by negative (0) and fused positive (1) controls, mean of up to three cultures; higher = more likely to interact. Active = false discovery rate below 0.05 (one-sided t-test) in at least one culture. Nearly all pairs are not hits, and differences among them are mostly noise (correlation between cultures about 0.3); most hits were seen in one culture only. Human sequences are the Swiss-Prot entries looked up by gene name; the clone may be another isoform. NSP2 values were corrected by the authors for a growth advantage. Listed are human proteins with a hit and a random twelfth of the others.
# B1: ADORA2B, P29275 (protein)
# chain: MLLETQDALYVALELVIAALSVAGNVLVCAAVGTANTLQTPTNYFLVSLAAADVAVGLFAIPFAITISLGFCTDFYGCLFLACFVLVLTQSSIFSLLAVAVDRYLAICVPLRYKSLVTGTRARGVIAVLWVLAFGIGLTPFLGWNSKDSATNNCTEPWDGTTNESCCLVKCLFENVVPMSYMVYFNFFGCVLPPLLIMLVIYIKIFLVACRQLQRTELMDHSRTTLQREIHAAKSLAMIVGIFALCWLPVHAVNCVTLFQPAQGKNKPKWAMNMAILLSHANSVVNPIVYAYRNRDFRYTFHKIISRYLLCQADVKSGNGQAGVQPALGVGL
# B2: ABLIM1, O14639 (protein)
# chain: MPAFLGLKCLGKLCSSEKSKVTSSERTSARGSNRKRLIVEDRRVSGTSFTAHRRATITHLLYLCPKDYCPRGRVCNSVDPFVAHPQDPHHPSEKPVIHCHKCGEPCKGEVLRVQTKHFHIKCFTCKVCGCDLAQGGFFIKNGEYLCTLDYQRMYGTRCHGCGEFVEGEVVTALGKTYHPNCFACTICKRPFPPGDRVTFNGRDCLCQLCAQPMSSSPKETTFSSNCAGCGRDIKNGQALLALDKQWHLGCFKCKSCGKVLTGEYISKDGAPYCEKDYQGLFGVKCEACHQFITGKVLEAGDKHYHPSCARCSRCNQMFTEGEEMYLQGSTVWHPDCKQSTKTEEKLRPTRTSSESIYSRPGSSIPGSPGHTIYAKVDNEILDYKDLAAIPKVKAIYDIERPDLITYEPFYTSGYDDKQERQSLGESPRTLSPTPSAEGYQDVRDRMIHRSTSQGSINSPVYSRHSYTPTTSRSPQHFHRPGNEPSSGRNSPLPYRPDSRPLTPTYAQAPKHFHVPDQGINIYRKPPIYKQHAALAAQSKSSEDIIKFSKFPAAQAPDPSETPKIETDHWPGPPSFAVVGPDMKRRSSGREEDDEELLRRRQLQEEQLMKLNSGLGQLILKEEMEKESRERSSLLASRYDSPINSASHIPSSKTASLPGYGRNGLHRPVSTDFAQYNSYGDVSGGVRDYQTLPDGHMPAMRMDRGVSMPNMLEPKIFPYEMLMVTNRGRNKILREVDRTRLERHLAPEVFREIFGMSIQEFDRLPLWRRNDMKKKAKLF
# B3: ART3, Q13508 (protein)
# chain: MKTGHFEIVTMLLATMILVDIFQVKAEVLDMADNAFDDEYLKCTDRMEIKYVPQLLKEEKASHQQLDTVWENAKAKWAARKTQIFLPMNFKDNHGIALMAYISEAQEQTPFYHLFSEAVKMAGQSREDYIYGFQFKAFHFYLTRALQLLRKPCEASSKTVVYRTSQGTSFTFGGLNQARFGHFTLAYSAKPQAANDQLTVLSIYTCLGVDIENFLDKESERITLIPLNEVFQVSQEGAGNNLILQSINKTCSHYECAFLGGLKTENCIENLEYFQPIYVYNPGEKNQKLEDHSEKNWKLEDHGEKNQKLEDHGVKILEPTQIPGMKIPEPFPLPEDKSQGNINNPTPGPVPVPGPKSHPSASSGKLLLPQFGMVIILISVSAINLFVAL
# Target: SARS-CoV-2 E
# Experiment: yeast fitness gain over the viral ORF with no human partner (scaled fitness); higher = more likely to interact
# Description: (§1)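 Split mouse DHFR complementation in pooled diploid yeast: human ORFeome clones carry one fragment and viral ORFs the other; barcoded lineages compete in 1 µg/mL methotrexate and fitness is read by barcode sequencing in up to three cultures.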
row,Binder,yeast fitness gain
1,B1,inactive: 0.0557
2,B2,inactive: 0.0638
3,B3,inactive: 0.0753

# Target: SARS-CoV-2 M
# Experiment: as above
# Description: as §1
row,Binder,yeast fitness gain
1,B1,inactive: -0.0186
2,B2,inactive: 0.0409
3,B3,inactive: -0.0329

# Target: SARS-CoV-2 N
# Experiment: as above
# Description: as §1
row,Binder,yeast fitness gain
1,B1,inactive: -0.124
2,B3,inactive: -0.164

# Target: SARS-CoV-2 NSP1
# Experiment: as above
# Description: as §1
row,Binder,yeast fitness gain
1,B1,inactive: -0.0149
2,B2,inactive: -0.00766
3,B3,inactive: 0.0806

# Target: SARS-CoV-2 NSP10
# Experiment: as above
# Description: as §1
row,Binder,yeast fitness gain
1,B1,inactive: 0.0466
2,B2,inactive: -0.0557
3,B3,inactive: 0.0321

# Target: SARS-CoV-2 NSP12
# Experiment: as above
# Description: as §1
row,Binder,yeast fitness gain
1,B1,inactive: 0.0375
2,B2,inactive: 0.00131
3,B3,inactive: -0.0854

# Target: SARS-CoV-2 NSP13
# Experiment: as above
# Description: as §1
row,Binder,yeast fitness gain
1,B1,inactive: 0.028
2,B2,inactive: 0.0161
3,B3,inactive: -0.0119

# Target: SARS-CoV-2 NSP14
# Experiment: as above
# Description: as §1
row,Binder,yeast fitness gain
1,B1,inactive: -0.334
2,B2,inactive: 0.0267

# Target: SARS-CoV-2 NSP15
# Experiment: as above
# Description: as §1
row,Binder,yeast fitness gain
1,B1,inactive: 0.0222
2,B2,inactive: 0.00865
3,B3,inactive: -0.2

# Target: SARS-CoV-2 NSP16
# Experiment: as above
# Description: as §1
row,Binder,yeast fitness gain
1,B1,inactive: 0.0209
2,B2,inactive: 0.0755
3,B3,inactive: -0.0928

# Target: SARS-CoV-2 NSP2
# Experiment: as above
# Description: as §1
row,Binder,yeast fitness gain
1,B1,inactive: -0.183
2,B2,inactive: -0.112

# Target: SARS-CoV-2 NSP4
# Experiment: as above
# Description: as §1
row,Binder,yeast fitness gain
1,B1,inactive: -0.536
2,B2,inactive: -0.0261

# Target: SARS-CoV-2 NSP5
# Experiment: as above
# Description: as §1
row,Binder,yeast fitness gain
1,B1,inactive: -0.0333
2,B2,inactive: -0.0433
3,B3,inactive: 0.0182

# Target: SARS-CoV-2 NSP6
# Experiment: as above
# Description: as §1
row,Binder,yeast fitness gain
1,B1,inactive: 0.0376
2,B2,inactive: 0.0035
3,B3,inactive: 0.0864

# Target: SARS-CoV-2 NSP7
# Experiment: as above
# Description: as §1
row,Binder,yeast fitness gain
1,B1,inactive: 0.0757
2,B2,inactive: -0.00796
3,B3,inactive: -0.0229

# Target: SARS-CoV-2 NSP8
# Experiment: as above
# Description: as §1
row,Binder,yeast fitness gain
1,B1,inactive: -0.0702
2,B2,inactive: 0.04
3,B3,inactive: -0.149

# Target: SARS-CoV-2 NSP9
# Experiment: as above
# Description: as §1
row,Binder,yeast fitness gain
1,B1,inactive: 0.0383
2,B2,inactive: 0.0467
3,B3,inactive: 0.0504

# Target: SARS-CoV-2 ORF10
# Experiment: as above
# Description: as §1
row,Binder,yeast fitness gain
1,B1,inactive: 0.00558
2,B2,inactive: 0.0191
3,B3,inactive: -0.0359

# Target: SARS-CoV-2 ORF3A
# Experiment: as above
# Description: as §1
row,Binder,yeast fitness gain
1,B1,inactive: 0.0253
2,B2,inactive: 0.0551

# Target: SARS-CoV-2 ORF3B
# Experiment: as above
# Description: as §1
row,Binder,yeast fitness gain
1,B1,inactive: -0.0324
2,B2,inactive: 0.0285
3,B3,inactive: 0.0416

# Target: SARS-CoV-2 ORF6
# Experiment: as above
# Description: as §1
row,Binder,yeast fitness gain
1,B1,inactive: 0.0175
2,B2,inactive: -0.015
3,B3,inactive: 0.054

# Target: SARS-CoV-2 ORF7A
# Experiment: as above
# Description: as §1
row,Binder,yeast fitness gain
1,B1,inactive: -0.0103
2,B2,inactive: -0.0182
3,B3,inactive: -0.0654

# Target: SARS-CoV-2 ORF7B
# Experiment: as above
# Description: as §1
row,Binder,yeast fitness gain
1,B1,inactive: -0.00919
2,B2,inactive: 0.0425
3,B3,inactive: -0.1

# Target: SARS-CoV-2 ORF8
# Experiment: as above
# Description: as §1
row,Binder,yeast fitness gain
1,B1,inactive: 0.0168
2,B2,inactive: 0.0308
3,B3,inactive: 0.0392

# Target: SARS-CoV-2 ORF9B
# Experiment: as above
# Description: as §1
row,Binder,yeast fitness gain
1,B1,inactive: 0.0502
2,B2,inactive: -0.0186
3,B3,inactive: 0.0172

# Target: SARS-CoV-2 ORF9Bwu (the 73-codon ORF)
# Experiment: as above
# Description: as §1
row,Binder,yeast fitness gain
1,B1,inactive: 0.0219
2,B2,inactive: 0.0698
3,B3,inactive: 0.012

# Target: SARS-CoV-2 S
# Experiment: as above
# Description: as §1
row,Binder,yeast fitness gain
1,B1,inactive: 0.0143
2,B2,inactive: 0.00156
3,B3,inactive: -0.0243
